Results as given in the supplement of paper PMC4166925.
± gives the standard deviation of the averaged measurements. In all, about 33,000 sequences were measured (“E-score (dimensionless, -0.5 to 0.5)”: median about -0.046, highest 2% from about 0.36 on). Some of the results follow.

These sequences were tested on T1, SpTbr T-box DNA-binding domain (GST fusion) (assay: PBM E-score of 8-mer (E-score (dimensionless, -0.5 to 0.5)); Tbr is Tbrain of the sea star Patiria miniata (Pm) or the sea urchin Strongylocentrotus purpuratus (Sp); higher = stronger binding preference; most listed sequences are background and not binding sites). Settings: the construct has about 5 more residues each side.
T1 sequence: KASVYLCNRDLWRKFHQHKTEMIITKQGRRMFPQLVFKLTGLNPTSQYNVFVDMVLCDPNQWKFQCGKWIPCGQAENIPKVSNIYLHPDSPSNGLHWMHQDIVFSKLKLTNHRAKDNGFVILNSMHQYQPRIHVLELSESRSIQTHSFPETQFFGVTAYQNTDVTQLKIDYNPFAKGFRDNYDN
How it was run: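 Using the Universal PBM Analysis Suite, every ungapped 8-mer received an enrichment E-score averaged over duplicate arrays. Probe intensities came from double-stranded Universal Agilent oligonucleotide arrays incubated with 200 nM GST-fused Tbr T-box DNA-binding domain in PBS (pH 7.5). That protein was expressed in BL21 E. coli at 20 °C and purified by glutathione affinity chromatography.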

| Sequence | PBM E-score of 8-mer |
| --- | --- |
| CATGCTAA | 0.0578 ± 0.029 |
| GACGCTCC | -0.126 ± 0.02 |
| CGTCGGAG | 0.0498 ± 0.043 |
| GGGCGCCC | 0.00973 ± 0.072 |
| CACGTCTC | 0.0338 ± 0.053 |
| ATAAACCG | -0.169 ± 0.054 |
| CTAATGCA | 0.038 ± 0.071 |
| GCCTGAAA | -0.0776 ± 0.0074 |
| GCGCACCC | 0.212 ± 0.069 |
| ACACACGG | 0.0795 ± 0.13 |
| AACCGACC | -0.016 ± 0.015 |
| ATGCTGAG | -0.12 ± 0.1 |
| CAACGCAG | -0.0456 ± 0.012 |
| GAATAACC | -0.155 ± 0.032 |
| AATAAGCC | -0.191 ± 0.022 |
| ACTGGTCT | -0.28 ± 0.0082 |
| CGCAGTTA | 0.067 ± 0.066 |
| CCGCCTGA | -0.356 ± 0.012 |
| ATGAGCAT | -0.135 ± 0.0018 |
| CAGGTTTA | -0.0433 ± 0.065 |
| ATGAGAAA | -0.221 ± 0.031 |
| TAAGACGA | -0.132 ± 0.059 |
| AGCGATGA | 0.0419 ± 0.037 |
| ACTAGACT | -0.137 ± 0.048 |
| AGTGTCAA | 0.453 ± 0.0054 |

| Sequence | PBM E-score of 8-mer |
| --- | --- |
| CAGATATC | -0.0613 ± 0.018 |
| ACGGTGCC | 0.118 ± 0.0085 |
| ACAAAGTC | 0.109 ± 0.039 |
| CCGCTGAC | -0.016 ± 0.012 |
| AGTGAAAA | 0.0688 ± 0.073 |
| ACCTAGGT | 0.254 ± 0.061 |
| CCCGCACG | 0.124 ± 0.056 |
| GAATCACC | 0.00864 ± 0.021 |
| GTATCGCA | 0.221 ± 0.02 |
| CGGGACCG | -0.0903 ± 0.048 |
| CAAGATAA | -0.144 ± 0.0098 |
| ATATGTAA | -0.176 ± 0.04 |
| ATAATGGG | -0.206 ± 0.063 |
| CGGACGAC | -0.203 ± 0.028 |
| ACTCCGTA | -0.155 ± 0.017 |
| AGACCAGC | 0.0467 ± 0.024 |
| ACGGAACT | -0.139 ± 0.019 |
| AGAGATCA | -0.0746 ± 0.0016 |
| CTGTAATC | -0.16 ± 0.066 |
| ATCGAAAT | -0.0649 ± 0.025 |
| CAAGTTCG | 0.0356 ± 0.0073 |
| ATCGACTA | 0.0794 ± 0.01 |
| TATCAGCA | 0.0345 ± 0.0075 |
| CAAGATGA | -0.0746 ± 0.023 |
| ACCCAAGG | -0.0401 ± 0.046 |

| Sequence | PBM E-score of 8-mer |
| --- | --- |
| TAACGGGA | 0.143 ± 0.061 |
| GCTCCGAC | 0.0514 ± 0.0047 |
| ATTCTGCA | -0.151 ± 0.033 |
| ATCTGGGC | -0.056 ± 0.0047 |
| AGACGTTC | -0.0642 ± 0.046 |
| ATGCGCCA | -0.0177 ± 0.0079 |
| ACCTAAAG | 0.0571 ± 0.062 |
| CCAAACCG | 0.0602 ± 0.012 |
| GTCAAGAC | 0.223 ± 0.018 |
| CTTATCGC | 0.175 ± 0.018 |
| TGGCACCA | 0.362 ± 0.014 |
| GACCGCAC | 0.0215 ± 0.05 |
| ACGGTTCC | -0.0885 ± 0.02 |
| GCAGTCCA | -0.00324 ± 0.027 |
| ATTGTGGG | 0.0801 ± 0.075 |
| AGCGCGAT | 0.276 ± 0.009 |
| AGTAAGCC | -0.164 ± 0.051 |
| ATTTCGCA | 0.335 ± 0.025 |
| AAGGTCTG | -0.0365 ± 0.042 |
| CCAATTCG | 0.0242 ± 0.027 |
| CGTAAGTA | 0.169 ± 0.0079 |
| AGATAAGC | -0.083 ± 0.007 |
| CCCAAAGG | -0.0518 ± 0.025 |
| CTCACATC | 0.377 ± 0.013 |
| AGGGAGAA | -0.0813 ± 0.029 |

| Sequence | PBM E-score of 8-mer |
| --- | --- |
| CAACCAAA | 0.00574 ± 0.045 |
| AACTCTAC | 0.129 ± 0.16 |
| ACAAGTAG | 0.118 ± 0.029 |
| CCTCTTAA | -0.125 ± 0.019 |
| CATTGCTA | -0.0279 ± 0.034 |
| CCACTACA | -0.0342 ± 0.011 |
| GTGCAATA | 0.156 ± 0.059 |
| AAATGCGC | 0.0497 ± 0.016 |
| GACCCATA | -0.274 ± 0.031 |
| GATAATGA | -0.0176 ± 0.062 |
| AACCGTTA | 0.0786 ± 0.051 |
| AGGTGTCC | 0.428 ± 0.0068 |
| AAGAAAGT | -0.0786 ± 0.019 |
| GGTCATCA | 0.106 ± 0.028 |
| ACTCACGC | 0.321 ± 0.043 |
| CATCGTAA | -0.157 ± 0.035 |
| ACTCTATA | -0.0754 ± 0.07 |
| CATATATA | -0.218 ± 0.096 |
| GAGCTACA | 0.0725 ± 0.038 |
| AGGGACCC | -0.0731 ± 0.017 |
| CCTGAGAC | -0.211 ± 0.019 |
| ACGATCGG | 0.0591 ± 0.014 |
| CGCCGTTC | 0.0479 ± 0.073 |
| TCCTTTCA | -0.0136 ± 0.0097 |
| AGTAAAGC | -0.2263 ± 0.0021 |

| Sequence | PBM E-score of 8-mer |
| --- | --- |
| AACCGCCG | -0.0966 ± 0.016 |
| AACAGGAC | -0.0388 ± 0.019 |
| AGACAATG | 0.0097 ± 0.034 |
| ACCGTGGC | 0.00789 ± 0.047 |
| ATGATGAC | 0.0572 ± 0.045 |
| AATCAAAG | -0.232 ± 0.028 |
| CTCAGCAA | -0.0639 ± 0.029 |
| AACACATG | 0.336 ± 0.046 |
| CAGGGCTA | -0.145 ± 0.025 |
| AGTCTATA | -0.195 ± 0.041 |
| AATTAAAG | -0.205 ± 0.0089 |
| GACGGCGA | 0.0807 ± 0.014 |
| ACATTCCG | 0.0019 ± 0.027 |
| AACGAAGT | -0.0781 ± 0.075 |
| AAGCGAAA | -0.162 ± 0.019 |
| AGAACGCG | 0.0755 ± 0.0077 |
| CCAGGAAA | -0.0426 ± 0.033 |
| CGCGCGAA | 0.408 ± 0.013 |
| ACCATCTG | 0.0889 ± 0.025 |
| CCTTCCTA | -0.147 ± 0.024 |
| CCACTGTC | 0.0273 ± 0.0076 |
| AGTTAAAG | -0.181 ± 0.071 |
| CGCTTCTA | -0.0401 ± 0.026 |
| TGCTAGCA | 0.228 ± 0.021 |
| GCACACTA | 0.104 ± 0.018 |

| Sequence | PBM E-score of 8-mer |
| --- | --- |
| CCGCCTTC | 0.121 ± 0.014 |
| GCGTTTAA | -0.0335 ± 0.054 |
| AAGTGCGA | 0.483 ± 0.0069 |
| CCCGAAGG | -0.162 ± 0.055 |
| CGCCTTCA | 0.20133 ± 4.2e-05 |
| AACTGGAA | -0.271 ± 0.038 |
| CCGCTTGC | 0.0621 ± 0.011 |
| CATCAATC | -0.161 ± 0.074 |
| AGTGTGTG | 0.36 ± 0.023 |
| GAGGAACC | -0.132 ± 0.11 |
| AATATGGA | -0.225 ± 0.073 |
| ATACAGCC | -0.294 ± 0.058 |
| CACCCCGC | 0.249 ± 0.042 |
| ACGCACCT | 0.366 ± 0.0075 |
| CTTGTGAC | 0.253 ± 0.003 |
| ATGGACCG | -0.157 ± 0.0094 |
| CCATACCA | -0.083 ± 0.077 |
| CATGGTTC | 0.0583 ± 0.067 |
| ATTGAGGC | -0.074 ± 0.032 |
| AGCTCAGA | -0.0155 ± 0.07 |
| CAGGTTCC | -0.104 ± 0.083 |
| GGTCTTAC | -0.251 ± 0.029 |
| ACTTGGCC | 0.0332 ± 0.045 |
| GCGGTGTA | -0.122 ± 0.012 |
| CTAGAAAG | -0.103 ± 0.031 |

| Sequence | PBM E-score of 8-mer |
| --- | --- |
| AGATACCT | -0.125 ± 0.072 |
| GGGCAATA | -0.261 ± 0.046 |
| ATATCAGC | -0.114 ± 0.044 |
| CGACTTTA | 0.0445 ± 0.032 |
| TGAATGAA | -0.243 ± 0.038 |
| AAAGACGG | -0.0799 ± 0.015 |
| AACGTGTA | 0.135 ± 0.074 |
| CGGGCAGA | -0.00966 ± 0.018 |
| CACTCAAA | -0.0682 ± 0.008 |
| GAACAACA | 0.144 ± 0.08 |
| AGAAGACG | -0.233 ± 0.0039 |
| CAGTGCGG | 0.107 ± 0.0036 |
| CTTTCTAC | -0.0127 ± 0.014 |
| CTAAACTC | -0.124 ± 0.069 |
| TCATTACA | -0.0133 ± 0.029 |
| ATTACATA | -0.115 ± 0.038 |
| AGATTACT | 0.00864 ± 0.0059 |
| CCACCTCG | 0.228 ± 0.019 |
| ACTGCCTA | -0.14 ± 0.028 |
| AAAAGTAA | -0.13 ± 0.022 |
| CCGAAAGG | -0.139 ± 0.059 |
| CACGACGG | 0.154 ± 0.011 |
